We go through 84 variants from the RNAGym collection of RNA variant scans (doi:10.1093/nar/gkz1192).

The labels stand for the following.
B1: CPEB3 Ribozyme (parent)
chain: UAACAGGGGGCCACAGCAGAAGCGUUCACGUCGCAGCCCCUGUCAGAUUCUGGUGAAUCUGCGAAUUCUGCUGUAUAUCUC

Read counts are not given, so values of variants with three or more changes are uncertain.

Variants of B1 are the subject of this series. The series is described as follows: self-cleavage, relative activity (ratio to wild type); higher = more cleavage; in vitro, sequencing. The method, boiled down: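 For each CPEB3 ribozyme variant, relative activity is its cleaved/total read fraction divided by the unmutated ribozyme's. Barcoded error-prone PCR libraries were transcribed by T7 RNA polymerase (5 hours, 37°C) and held in DNase I for 15 min before an EDTA stop, with cleavage occurring throughout. Template-switching reverse transcription and Illumina sequencing were used to read the RNAs. A 5-read minimum applied, and results are the mean of three batches.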
For A20G U25C U31C A45U A77G, the self-cleavage was 0.08.
Turning to A20G A56G U69A, the self-cleavage came to 0.23.
As for A20G U25C A56U U80C, the figure is 0.57; as for A20U U41A U66G U74C A75C, 0.05.
In the case of A20G C32U A65G, the self-cleavage turned out to be 0.06.
The result for A20G U48C A77U reads 0.37; that for A20G A35U A64G, 0.27; that for A20G U31A U41C, 0.23.
The result for A20U A21G U41C A57U U67A reads 0.32; that for A20G A35U U48C, 0.1.
A20G U31G A64G: the self-cleavage was 0.19.
On to A20U U41C U49C A56G U74C, for which the self-cleavage stood at 0.42.
As to A20U A47G G52U, the self-cleavage worked out at 0.42.
As for A20G C38A U41C A47G, the figure is 0.2; as for A20G G22A A28U U31A A57G U67C U72C, 0.06.
The result for A20U A45U U60A reads 0.25; that for A20G A28U U31A G46U U54C U58A, 0.05; that for A20U U26A U41A U49C A65U, 0.07.
As to A20G U26C A45C U72C, the self-cleavage was 0.32.
The result for A20U U41C U49C U72A reads 0.31; that for A20G U54C A56G A75G, 0.42; that for A20U A21U C23U A47G U51A U69C, 0.03.
On to A20G U48A U80A, for which the self-cleavage came out at 0.14.
Consider A20U U58C U60C C62A U72A, for which the self-cleavage is 0.11.
As for A21C G24A U60C, the figure is 0.13.
The result for A20G C40A U41C reads 0.47; that for A20G A64G A77G, 0.44.
On to A20G U54A U80C, for which the self-cleavage is 1.13.
As for A20G G36C A75G, the figure is 0.15; as for A20U C39U A45G, 0.18.
On to A20G A35U U51A U72A U76C, for which the self-cleavage amounted to 0.13.
As for A20G U25C U41C U48C U51A A57G U60A, the figure is 0.1.
As for A20U U26A G33A U48C G61A G63A A75U, the figure is 0.03.
For the variant A20G G33A C38U G52A U67C, the self-cleavage is 0.05.
Take A20G G63U U76G: the self-cleavage is 1.16.
Turning to A20G U25C A35U A65U U74C A75G, the self-cleavage amounted to 0.07.
As to A21G A28G C62U G70A, the self-cleavage was 0.1.
As for A20G C23U U43A U60C U74C, the figure is 0.19; as for A20U A28G U54A C62A U67C U72C, 0.05; as for A20U U43C G53A U72A, 0.1.
As for A20G A35U U69C, the figure is 0.32.
The result for A20G U48A U58G A77U C79U reads 0.08; that for A20G U41A G61C A75G, 0.38.
Consider A20G G22A U51A A65G U72C, for which the self-cleavage came out at 0.13.
As for A20G U43C U67C U72C, the figure is 0.51; as for A21C A35G C81A, 0.57; as for A20U A21U A35U U72A, 0.15.
With A20G U66G U80C, the self-cleavage came to 0.21.
The result for A20G U43A A45U reads 0.46.
Consider A20G U31C U41C U72C, for which the self-cleavage came to 0.42.
As for A20G U51A U60C A65U U74C, the self-cleavage is 0.25.
The result for A20G U26C A28G A35G U43C U49C U80C reads 0.39.
As for A20U A28U A35G A56G, the figure is 0.27; as for A20G U26C U31A U69C, 0.16; as for A20G C32U U67C U72C A75G, 0.13.
With A20G A35G G70A U74C, the self-cleavage was 1.11.
The result for A20G A47U U72C reads 0.11; that for A20G A35G A45G U48C, 0.5.
Turning to A20G C23A U54C A57G G61C U67A, the self-cleavage was 0.05.
Consider A20U G30U U49G, for which the self-cleavage is 0.12.
Take A20U U25A C32A C34A A65G: the self-cleavage came to 0.07.
For A20G A64U A77G, the self-cleavage was determined as 0.34.
Turning to A20U A21G U25C U51G G55A, the self-cleavage was 0.18.
The result for A20G U41C A64G U74G reads 0.75.
As for A20U U49C C59U, the figure is 0.11; as for A20U U41A U58C G63A, 0.02.
As for A20G U26C A45U U72C A75G, the figure is 0.06; as for A20G U26A A35U C37G U76G, 0.22; as for A20G U26G A35G U48A, 0.27.
A20G G33A A47G U67G U69G: the self-cleavage is 0.04.
On to A20G U31C A45G U60C, for which the self-cleavage was 0.78.
The result for A20G A28U A56G reads 0.51.
For the variant A20U C39U A45U A56U A77U, the self-cleavage stood at 0.15.
A20G U31G C79U: the self-cleavage turned out to be 0.23.
In the case of A20G A28G U69C, the self-cleavage turned out to be 0.28.
A20G G24C A57G A77U: the self-cleavage was 0.14.
The result for A20G U51A G52A U58A G63A A77C reads 0.38; that for A20G U31A C34A U48C A77U, 0.05.
Consider A20G U26A A35C A56G A57G U78C, for which the self-cleavage amounted to 0.13.
For A20G U48C A65U, the self-cleavage came out at 0.09.
The result for A20G A45G U72C reads 0.75; that for A20G G36C U43A, 0.09; that for A20U C23A A28U U41A, 0.25.
As for A20G U26C A45G, the figure is 0.32.
